Whole data set: some 110,000 compounds, median “z-score” near -0.1, cut for the highest 2% near 2. Some of the results follow. Activity calls are given as the source filed them.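 How the source made its calls: active means z-score in the third read window above 3 or below -3; inactive means the rest.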
target: Metabotropic glutamate receptor 8 (Rattus norvegicus) (UniProt P70579); test: mGluR8 Gi/Go-coupled signaling modulation – cell-based, rat, thallium flux, HTS, primary screen (AID 488969); conditions: HEK293 rat mGluR8, GIRK (G protein-gated inwardly rectifying potassium channel) thallium flux, FluoZin2; at 10 µM; stronger effect = higher value; submaximal glutamate (EC20) added with thallium
UniProt P70579, sequence (P70579 whole entry, looked up): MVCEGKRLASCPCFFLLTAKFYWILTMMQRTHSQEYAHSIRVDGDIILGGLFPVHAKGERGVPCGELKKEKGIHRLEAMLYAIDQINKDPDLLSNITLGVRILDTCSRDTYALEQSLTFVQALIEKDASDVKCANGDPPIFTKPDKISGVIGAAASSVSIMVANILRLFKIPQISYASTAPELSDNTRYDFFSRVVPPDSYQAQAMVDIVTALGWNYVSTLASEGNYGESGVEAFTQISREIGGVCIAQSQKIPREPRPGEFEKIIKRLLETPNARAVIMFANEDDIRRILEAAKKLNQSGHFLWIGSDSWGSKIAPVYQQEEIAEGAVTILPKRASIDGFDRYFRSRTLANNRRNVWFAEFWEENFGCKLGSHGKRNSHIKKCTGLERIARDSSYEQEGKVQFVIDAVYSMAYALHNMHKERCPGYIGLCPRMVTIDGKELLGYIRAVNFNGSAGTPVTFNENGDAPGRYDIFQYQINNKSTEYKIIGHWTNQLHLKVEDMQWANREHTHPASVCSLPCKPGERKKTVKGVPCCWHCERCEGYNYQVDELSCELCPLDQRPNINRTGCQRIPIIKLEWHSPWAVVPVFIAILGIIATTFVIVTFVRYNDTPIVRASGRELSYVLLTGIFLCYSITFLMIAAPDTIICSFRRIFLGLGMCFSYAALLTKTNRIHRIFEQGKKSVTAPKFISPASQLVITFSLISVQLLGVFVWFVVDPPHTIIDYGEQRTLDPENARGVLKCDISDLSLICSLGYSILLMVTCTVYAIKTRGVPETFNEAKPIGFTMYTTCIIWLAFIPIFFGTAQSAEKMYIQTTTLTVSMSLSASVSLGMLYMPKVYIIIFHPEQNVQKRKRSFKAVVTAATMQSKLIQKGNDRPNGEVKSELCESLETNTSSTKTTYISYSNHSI

Question: `C=CCN(C(=O)CNC(=O)c1ccco1)C(C(=O)NC1CCCCC1)c1ccc(OC)cc1` (stereo unspecified) was tested. Which z-score did it give?
Answer: The z-score was -0.131.

Question: How did the z-score turn out when `O=C(CN1CCCN(Cc2ccc(F)cc2Cl)C1=O)NC1CCCCCCC1` was run?
Answer: Its z-score is 0.44.

Question: Which z-score does the source give for `COc1ccccc1NC(=O)C(CC(C)C)NC(=O)C1CCCCC1` (stereo unspecified) here?
Answer: The z-score was -1.02.

Question: How did the z-score turn out when `Cc1ccc(C)c(N2CCN(C(=O)c3cc4ccccc4oc3=O)CC2)c1` was run?
Answer: The z-score was -0.295.

Question: Which z-score does the source give for `COc1ccc(Br)cc1C(=O)Nc1cc(C)cc(C)c1` here?
Answer: Its z-score is 0.81.

Question: How did the z-score turn out when `O=C(COc1ccc(S(=O)(=O)N2CCCC2)cc1Cl)N1CCN(c2ccccc2)CC1` was run?
Answer: Its z-score is -0.134.

Question: For `COc1ccc(CCN2C(=O)c3cccc4c(C(=O)N5CCCCC5)ccc(c34)C2=O)cc1OC`, which z-score is on record?
Answer: Its z-score is -0.211.

Question: `CCn1c(=N)n(CC(=O)c2ccc(OC)cc2)c2ccccc21` was tested. Which z-score did it give?
Answer: The z-score was -0.117.

Question: `CC(C)OCCCNC(=O)C1CCN(S(=O)(=O)N2CCCCC2)CC1` was tested. Which z-score did it give?
Answer: The z-score was 1.03.

Question: With `COc1ccc(C2c3c(-c4cc(Cl)c(C)cc4O)n[nH]c3C(=O)N2Cc2cccnc2)cc1OC` (stereo unspecified) as the compound, how does the z-score read?
Answer: The z-score was 0.413.

Question: How did the z-score turn out when `CCN(CC)c1nc2nonc2nc1N(CC)CC` was run?
Answer: The z-score was 2.53.

Question: For `CC(C)(C)OC(=O)N[C@@H](Cc1ccccc1)c1nnc(S(=O)(=O)Cc2cccc(F)c2)o1`, which z-score is on record?
Answer: The z-score was 0.242.

Question: Which z-score does the source give for `Cc1ccc2c(c1)NC(=O)C(CC(=O)Nc1ccc(CN3CCC(C)CC3)cc1)O2` (stereo unspecified) here?
Answer: The z-score was 0.00115.

Question: Which z-score does the source give for `Cc1nc(CC(=O)N2CCN(c3cccc(C)c3C)CC2)cs1` here?
Answer: The z-score was -0.0923.

Question: With `c1ccc(Cc2nnc3sc(C4COc5ccccc5O4)nn23)cc1` (stereo unspecified) as the compound, how does the z-score read?
Answer: Its z-score is -0.102.

Question: How did the z-score turn out when `COc1ccc(CCNC(=O)C2CCN(S(=O)(=O)c3ccc(-n4cnnn4)cc3)CC2)cc1OC` was run?
Answer: The z-score was -0.441.

Question: How did the z-score turn out when `CCOc1ccc(NC(=O)N2CCN(CC)CC2)cc1` was run?
Answer: Its z-score is 0.579.

Question: How did the z-score turn out when `CCCc1nn(C)c(C(=O)Nc2ccc3ccccc3c2)c1Cl` was run?
Answer: The z-score was 0.0433.

Question: With `O=C(COc1ccc(Cl)cc1Br)NNC(=O)C(=O)N1CCCCC1` as the compound, how does the z-score read?
Answer: The z-score was 0.437.

Question: With `CC(C)CC(=O)NS(=O)(=O)c1ccc(N)cc1` as the compound, how does the z-score read?
Answer: Its z-score is 0.0965.

Question: With `Cc1cc(C)c(C)c(OCC(=O)O/N=C(\N)c2ccccn2)c1` as the compound, how does the z-score read?
Answer: The z-score was 0.0182.

Question: `C/C(CC(=O)NC1CCCC1)=N\NC(=O)Cc1cccs1` was tested. Which z-score did it give?
Answer: Its z-score is -0.189.

Question: How did the z-score turn out when `C=CCN(CC=C)C(=O)CN1C(=O)c2ccccc2C1=O` was run?
Answer: Its z-score is 0.985.

Question: How did the z-score turn out when `CCn1nnc(NC(=O)c2ccc(-c3ccc(Cl)cc3)o2)n1` was run?
Answer: Its z-score is -0.473.

Question: For `Cn1nc(-c2ccc(N3CCOCC3)c(NS(=O)(=O)c3ccc(Cl)cc3)c2)c2ccccc2c1=O`, which z-score is on record?
Answer: The z-score was -0.174.

Question: `Cc1ccc(NC(=O)N/C=C/c2ccco2)cc1` was tested. Which z-score did it give?
Answer: The z-score was -0.393.

Question: For `C=CCn1c(C)cc(C(=O)CSc2nnc3c(Cl)cc(Cl)cn23)c1C`, which z-score is on record?
Answer: Its z-score is 0.0823.

Question: `c1ccc(OCCOc2cccc3cccnc23)cc1` was tested. Which z-score did it give?
Answer: The z-score was -0.0884.

Question: Which z-score does the source give for `CN(CCNC(=O)Cn1c(=O)sc2ccccc21)Cc1ccccc1` here?
Answer: The z-score was 0.164.

Question: `COC(=O)c1c(/N=C/NOCc2ccc(Cl)cc2)sc2c1CCN(c1ncc(C(F)(F)F)cc1Cl)C2` was tested. Which z-score did it give?
Answer: Its z-score is 0.547.

Question: How did the z-score turn out when `O=c1[nH]c(CSc2nc3ccccc3[nH]2)nc2c1cnn2-c1ccccc1` was run?
Answer: The z-score was -0.584.

Question: Which z-score does the source give for `Cc1cc(C(=O)N/N=C/c2ccc(C)o2)c2ccccc2n1` here?
Answer: Its z-score is -0.137.

Question: How did the z-score turn out when `COc1ccc(CCN2C(=O)c3ccccc3C2(O)c2ncc[nH]2)cc1OC` (stereo unspecified) was run?
Answer: The z-score was 0.0345.

Question: `COc1ccc(C)cc1NC(=O)C(=O)NCc1ccncc1` was tested. Which z-score did it give?
Answer: Its z-score is -0.183.

Question: With `CN(CC(=O)N1CCN(c2ccccn2)CC1)S(=O)(=O)c1ccc2ccccc2c1` as the compound, how does the z-score read?
Answer: The z-score was -0.601.

Question: `N#Cc1ccc(-c2ccc(F)cc2)nc1Oc1ccc(Cl)c(Cl)c1` was tested. Which z-score did it give?
Answer: The z-score was 0.519.

Question: `CC(C)NS(=O)(=O)c1ccc(N2C(=O)c3ccccc3C2=O)cc1` was tested. Which z-score did it give?
Answer: The z-score was -0.144.

Question: For `CCN(c1c(C)n(C)n(-c2ccccc2)c1=O)S(C)(=O)=O`, which z-score is on record?
Answer: Its z-score is 0.17.

Question: How did the z-score turn out when `CN(C)c1ccc(/C=N\Nc2nc(-c3ccccc3)cc(=O)[nH]2)cc1` was run?
Answer: The z-score was -0.138.

Question: Which z-score does the source give for `CCN(CC)CCN1C(=O)c2oc3ccccc3c(=O)c2C1c1ccc(C)cc1` (stereo unspecified) here?
Answer: Its z-score is active: 8.12.

Question: `O=C(CCC(=O)c1ccc(F)cc1)Nc1ccccc1Cl` was tested. Which z-score did it give?
Answer: The z-score was 0.266.

Question: With `O=C(Nc1ccc(N2CCOCC2)c(Cl)c1)c1cccnc1Cl` as the compound, how does the z-score read?
Answer: The z-score was -0.032.

Question: How did the z-score turn out when `Cc1ccccc1S(=O)(=O)NC1=NCCCCC1` was run?
Answer: The z-score was -0.463.

Question: With `CC(CO)N1CCS(=O)(=O)CC1` (stereo unspecified) as the compound, how does the z-score read?
Answer: Its z-score is 0.035.

Question: With `COc1cc(C(=O)Nc2ccccc2-c2nnn(CC(N)=O)n2)cc(OC)c1OC` as the compound, how does the z-score read?
Answer: Its z-score is 0.00311.

Question: `O=C(O)C1SCCN1S(=O)(=O)c1ccc2ccccc2c1` (stereo unspecified) was tested. Which z-score did it give?
Answer: The z-score was 0.133.

Question: For `COc1ccc(F)cc1S(=O)(=O)NC1CC(C)(C)NC(C)(C)C1`, which z-score is on record?
Answer: Its z-score is 0.0814.

Question: How did the z-score turn out when `C=CCOc1ccc(C2NC(=O)NC(C)=C2C(=O)OC)cc1` (stereo unspecified) was run?
Answer: The z-score was -0.975.

Question: For `O=C(c1n[nH]c(=O)c2ccccc12)N1CCN(c2ccccc2)CC1`, which z-score is on record?
Answer: The z-score was -0.038.

Question: How did the z-score turn out when `CCC(=O)N/C=C/n1cnc2cc(C(F)(F)F)ccc21` was run?
Answer: The z-score was 0.129.

Question: For `Fc1cccc(Cl)c1Cc1noc(/C=C/c2ccccc2)n1`, which z-score is on record?
Answer: The z-score was -0.138.

Question: For `O=C(Nc1ccccc1F)c1ccccc1-c1ccc(C(F)(F)F)cc1`, which z-score is on record?
Answer: Its z-score is -0.0848.

Question: For `CCOc1ccc(N=Nc2c(=O)[nH]n3c(C)cc(C)nc23)cc1`, which z-score is on record?
Answer: Its z-score is -0.16.

Question: With `CCCn1nnc2sc3c(c2c1=O)CCC(C)C3` (stereo unspecified) as the compound, how does the z-score read?
Answer: The z-score was -0.485.

Question: `Cc1nn(Cc2c(F)c(F)c(F)c(F)c2F)c(C)c1NC(=O)c1c(-c2ccccc2)nn(-c2ccccc2)c1C` was tested. Which z-score did it give?
Answer: The z-score was -0.01.

Question: Which z-score does the source give for `CCOC(=O)N1CCN(C(=O)CN(C)S(=O)(=O)c2ccc(OC)c(OC)c2)CC1` here?
Answer: Its z-score is -0.186.

Question: Which z-score does the source give for `O=C(NCCc1ccncc1)Nc1cccc(Cl)c1` here?
Answer: Its z-score is 0.145.

Question: With `Cc1ccc2oc(-c3ccc(C)c(NC(=O)Cc4cccs4)c3)nc2c1` as the compound, how does the z-score read?
Answer: The z-score was 0.0074.

Question: `CC(=C/c1ccccc1)/C=N/n1cnnc1` was tested. Which z-score did it give?
Answer: Its z-score is -0.0158.

Question: For `CCc1nnc(NC(=O)C2CC(=O)N(CCc3ccccc3)C2)s1` (stereo unspecified), which z-score is on record?
Answer: Its z-score is 0.309.

Question: For `Cc1cccc(OC(=O)C2C(c3ccccc3)C(C(=O)O)C2c2ccccc2)c1` (stereo unspecified), which z-score is on record?
Answer: The z-score was -0.501.

Question: With `CC(C)OC(=O)CCC1(C(=O)O)CCC(=O)NC1` (stereo unspecified) as the compound, how does the z-score read?
Answer: The z-score was -0.298.

Question: With `COc1cc(CC(=O)OC2CCOC2=O)cc(OC)c1OC` (stereo unspecified) as the compound, how does the z-score read?
Answer: Its z-score is -0.158.

Question: How did the z-score turn out when `COCCNC(=O)C1CC(=O)N(CCc2ccccc2)C1` (stereo unspecified) was run?
Answer: The z-score was -1.34.

Question: Which z-score does the source give for `COc1cc(C(=O)N2CCCC(c3nc(-c4cccs4)no3)C2)cc(OC)c1OC` (stereo unspecified) here?
Answer: Its z-score is -0.12.

Question: Which z-score does the source give for `COCCNC(=O)C(C)Oc1ccc(Cl)cc1Cl` (stereo unspecified) here?
Answer: The z-score was 0.227.

Question: With `C/C=C/C=[N+](\[O-])C(C)/C(=N/O)c1ccc(F)cc1` (stereo unspecified) as the compound, how does the z-score read?
Answer: The z-score was -0.52.

Question: Which z-score does the source give for `COc1ccc(OC)c(NC(=O)CSc2nnc(CCCO)n2-c2ccccc2)c1` here?
Answer: Its z-score is -0.00479.

Question: With `O=C1CCC(C(=O)NC2(C(=O)NC3CCCCC3)CCCCC2)N1` (stereo unspecified) as the compound, how does the z-score read?
Answer: The z-score was -0.0874.

Question: For `CCOC(=O)c1oc2c(c1C)C(=O)CCC2`, which z-score is on record?
Answer: Its z-score is -0.0495.

Question: Which z-score does the source give for `O=C(N/N=C\C=C\c1ccc2c(c1)OCO2)C1COc2cc3ccccc3cc2O1` (stereo unspecified) here?
Answer: The z-score was -0.307.

— PubChem BioAssay AID488969 (Vanderbilt High Throughput Screening Facility, 2010)
